These results are taken from PubChem BioAssay AID463173 (ICCB-Longwood Screening Facility, Harvard Medical School, 2010).

In all, about 52,000 compounds went through this assay and about 4,300 (8.3%) were called active. Rule as the data show it: active = survival mostly below about 52% (no sharp cut-off); inactive = mostly above about 56%. This is one part of the list.

The subject of the assay is DeltatarO mutant. The assay is described as follows: S. aureus survival, RN4220 and DeltatarO strains – OD600, teichoic acid synthesis inhibitors, primary screen (AID 463173). The settings on record: S. aureus RN4220 wild type/DeltatarO growth, OD600, 18 h, hits give low values, screened at 18.75 µg/mL (by protocol).
Consider `CC(=O)NC(NC(C)=O)C(=O)c1ccccc1`, for which the survival is inactive: 95%.
To `Cn1c(=O)c2cc(C(=O)N3CCN(c4ccc(Cl)cc4)CC3)sc2c2ccccc21` belongs active: 56%.
Regarding `O=C(Cn1cc(/C=C2\SC(=S)NC2=O)c2ccccc21)NCc1ccco1`, the survival was inactive: 88%.
Then `Cc1oc(-c2ccc(C(=O)Nc3cc(F)ccc3F)cc2)nc1COc1ccccc1`, with inactive: 97%.
To `O=C(NCCc1ccc(Cl)cc1)c1ccc(CS(=O)Cc2cccc(Cl)c2)o1` (stereo unspecified) belongs active: 38%; to `CCC(C)NC(=O)c1cnn(-c2ccc(Cl)cc2)c1C1CCN(C(=O)OC(C)(C)C)CC1` (stereo unspecified), inactive: 85%; to `Cc1cccc(Nc2cc(=O)[nH]c(=O)[nH]2)c1`, inactive: 94%.
Consider `COC(=O)c1n[nH]n(-c2ccccc2)c1=O`, for which the survival was inactive: 92%.
Turning to `Nc1nnc(SCC(=O)Nc2ccccc2C(F)(F)F)s1`, the survival was inactive: 146%.
To `Cc1cccc(NC(=O)C2CCCN(S(=O)(=O)c3cnc[nH]3)C2)c1C` (stereo unspecified) belongs inactive: 87%.
Take `CN(C1CCCCC1)S(=O)(=O)c1ccc2c(c1)c(=O)c(C(=O)NCCc1ccccc1)cn2C`: the survival is inactive: 79%.
Then `Cc1ccn2c(Nc3ccc4c(c3)OCCO4)c(-c3ccc(Cl)s3)nc2c1`, with inactive: 102%; and `Cc1ccc2[nH]c(=O)c(CNC3CCCC3)cc2c1`, with inactive: 75%; and `CN(C)C(=O)c1c(NC(=O)c2ccccc2F)sc2c1CCCC2`, with inactive: 76%.
Take `COc1ccc(Cn2c(C(=O)O)c(CNCCc3cc(OC)ccc3OC)c3ccc(C)cc32)cc1`: the survival was inactive: 85%.
To `COc1ccc(C2=NC(C)(C)N(CC(=O)Nc3cccc(C)c3)C2=O)cc1` belongs inactive: 76%.
`O=C(COc1ccc2ccccc2c1)NC1CC(=O)N(c2cccc(F)c2)C1` (stereo unspecified): the survival was inactive: 112%.
With `CC1=C(C(=O)Nc2ccc(Cl)cc2)C(CC(C)C)n2nc(SCc3ccccc3C)nc2N1` (stereo unspecified), the survival is inactive: 127%.
To `COc1ccccc1NC(=O)CSc1nc2ccccc2cc1C#N` belongs inactive: 104%.
With `Cc1ccc(S(=O)(=O)Nc2nc3n(n2)C(c2ccc(F)cc2)C=C(c2ccccc2)N3)cc1` (stereo unspecified), the survival was active: 29%.
As for `COc1cc(C2Nc3c(C)cc(C)cc3-c3cc(C)nn32)cc(OC)c1O` (stereo unspecified), the survival was inactive: 131%.
Then `O=C(c1cccn1-c1nnc(N2CCCC2)s1)N1CCN(c2ccc(Cl)cc2)CC1`, with inactive: 63%; and `Cn1nnc(C(O)CN2CCOCC2)n1` (stereo unspecified), with inactive: 75%.
On to `Cc1ccc2c(c1)C(c1ccccc1)N(C(=O)Cc1ccc(F)cc1)CC(=O)N2` (stereo unspecified), for which the survival is inactive: 55%.
Consider `Cn1c(=O)[nH]c2cc(-c3noc(-c4ccc(C#N)cc4)n3)ccc21`, for which the survival is inactive: 96%.
Then `Cc1cc(C)n(-c2nnc(Nc3ccc(C)c(Cl)c3)c3ccccc23)n1`, with inactive: 122%; and `CCCS(=O)(=O)NCCc1sc2nc(-c3ccc(F)cc3)nn2c1C`, with inactive: 76%.
Take `O=C(NCC(c1ccco1)S(=O)(=O)c1cccs1)c1ccccc1F` (stereo unspecified): the survival is inactive: 85%.
For `COc1cccc(CNc2cc(C)nc3nc(-c4ccc(C)cc4)nn23)c1`, the survival was inactive: 73%.
As for `COc1ccc(C2c3c(n(C)c4ccccc34)C(=O)N2CC(=O)Nc2cccc(F)c2)cc1` (stereo unspecified), the survival is inactive: 77%.
As to `CCCc1cc(=O)[nH]c2nnc(SCC)n12`, the survival was inactive: 95%.
As to `Cc1ccc(N2CC(C)Cn3c2nc2c3c(=O)n(Cc3cccc(Cl)c3)c(=O)n2C)cc1` (stereo unspecified), the survival was inactive: 46%.
`COc1ccc(NC(=O)c2oc3ccc(S(=O)(=O)N4CCOCC4)cc3c2C)cc1`: the survival is inactive: 116%.
As for `COc1cc(C2C(=O)N(C3CCCCCC3)CC(=O)N2CCc2ccccc2)ccc1OC(C)C` (stereo unspecified), the survival was inactive: 85%.
With `Cc1ccc(C)c(-n2c(N)c(C#N)c3nc4ccccc4nc32)c1`, the survival is inactive: 153%.
Regarding `O=C(NC1(C(F)(F)F)NC(=O)N(CCc2ccccc2)C1=O)c1ccc(Cl)cc1` (stereo unspecified), the survival was inactive: 58%.
`Oc1c(C(c2ccccc2)N2CCC(O)CC2)sc2nc(-c3ccco3)nn12` (stereo unspecified): the survival is inactive: 71%.
In the case of `Cn1c(=O)c2c(nc(Sc3nc4ccccc4n3CC(=O)N3CCCCC3)n2C)n(C)c1=O`, the survival is inactive: 114%.
To `Cc1ccc(-n2nc3c(=O)n(C(C)C(=O)NCc4ccco4)nc(C)c3c2C)cc1` (stereo unspecified) belongs active: 47%.
Consider `Cc1ccc(C)c(NC(=O)c2ccc(CN3CC(=O)N4CCCCC4C3=O)cc2)c1` (stereo unspecified), for which the survival was inactive: 54%.
Consider `CC(=O)Nc1ccc(NC(=O)c2ccc3c(c2)N(Cc2cccc(Cl)c2)C(=O)c2ccccc2S3(=O)=O)cc1`, for which the survival was inactive: 104%.
For `CCOC(=O)C(C)Sc1ccc2nnc(CCNS(=O)(=O)c3ccccc3)n2n1` (stereo unspecified), the survival is inactive: 79%.
With `COc1ccc(Nc2c3c(nc4ccc(NC(=O)c5ccc(F)cc5)cc24)CCCC3)cc1OC`, the survival was inactive: 106%.
On to `CC1N=C2c3ccccc3N=C(SCC(=O)NCCc3ccccc3)N2C1=O` (stereo unspecified), for which the survival is active: 52%.
`CN(Cc1ccccc1)C(=O)c1nc(-c2ccc(Cl)cc2)n2c1CCCCC2`: the survival is inactive: 75%.
For `CCOc1ccc(CCNC(=O)c2cnc3sc(N4CCCC4)nn3c2=O)cc1`, the survival is inactive: 90%.
Regarding `CC1CC(C)CN(C(=O)CNCc2ccco2)C1` (stereo unspecified), the survival was inactive: 83%.
`CCCCOc1cccc(C(=O)N(Cc2ccc(C)o2)c2ccccn2)c1`: the survival was inactive: 65%.
With `CN(C)S(=O)(=O)c1ccc(S(=O)(=O)N2CCC(O)CC2)cc1`, the survival is inactive: 98%.
For the molecule `COc1ccc(S(=O)(=O)Nc2cc(S(=O)(=O)c3ccccc3)c(O)c(C)c2C)cc1`, the survival was inactive: 78%.
As for `Cc1ccc(C(C)C)c(OC(C)C(=O)NCC2(N(C)C)CCCCC2)c1` (stereo unspecified), the survival is inactive: 106%.
On to `Cc1ccccc1CN1C(=O)c2ccccc2S(=O)(=O)c2ccc(C(=O)OCC3CCCO3)cc21` (stereo unspecified), for which the survival was inactive: 71%.
Then `CC(NC(=O)CN1C(=O)c2cccnc2Oc2ccc(Cl)cc21)c1ccccc1` (stereo unspecified), with inactive: 71%; and `Cc1cc(OC(C)C(=O)Nc2sc3c(c2C(N)=O)CCCC3)ccc1Cl` (stereo unspecified), with inactive: 59%.
In the case of `CN(C)S(=O)(=O)c1ccc(S(=O)(=O)N(C)CC2COc3ccccc3O2)cc1` (stereo unspecified), the survival was inactive: 80%.
As to `COc1ccc(-c2cc3ccc(O)c(CN4CCC(C)CC4)c3oc2=O)cc1OC`, the survival is active: 52%.
In the case of `COCCn1nnnc1C(C(C)C)N1CCN(C(=O)c2ccco2)CC1` (stereo unspecified), the survival was inactive: 103%.
With `COc1cc(-c2nnc(SCCOc3cc(C)cc(C)c3)o2)cc(OC)c1OC`, the survival was inactive: 109%.
To `Cc1noc(C)c1S(=O)(=O)N1CCC(C(=O)N2CCN(c3cccc(C(F)(F)F)c3)CC2)CC1` belongs inactive: 95%.
To `CC(C)NC(=O)CCC(=O)N1Cc2ccccc2Oc2ncccc21` belongs active: 0%; to `CCOC(=O)c1c(C)[nH]c(CCC(=O)Nc2ccc(OC)c(OC)c2)c1C`, inactive: 91%; to `C=Cn1c(=N)n(C)c2ccccc21`, inactive: 70%.
`CCC1CCCCN1C(=O)CSc1nc2c([nH]c3ccccc32)c(=O)n1-c1ccc(OC)cc1` (stereo unspecified): the survival was active: 25%.
For the molecule `Cc1nc(N2CCCCC2)c(C#N)c2c1COC(C)(C)C2`, the survival is inactive: 81%.
Then `COc1ccccc1NC(=O)CCN1CC(C)CC(C)C1` (stereo unspecified), with inactive: 61%; and `Cc1ccc(Cn2c(C(C)NC(=O)c3ccccc3)nc3ccccc32)cc1` (stereo unspecified), with inactive: 90%; and `O=C(NCCCN1CCN(c2ccccc2)CC1)c1ccc2nc(Cc3ccccc3)oc2c1`, with inactive: 92%.
For the molecule `COCCCNC(=O)CCC(=O)NNc1nc2ccccc2c2nc(C)nn12`, the survival was inactive: 90%.
On to `COc1ccc(N2CC(NC(=O)C(c3ccccc3)c3ccccc3)CC2=O)cc1OC` (stereo unspecified), for which the survival was inactive: 90%.
To `CC(C)Oc1ccc(-c2nc3c(C#N)c[nH]n3c2NC2CCCCC2)cc1` belongs inactive: 58%.
To `CC1Cc2ccccc2N1S(=O)(=O)c1nnc(NC(=O)c2ccccc2)s1` (stereo unspecified) belongs active: 12%; to `COC(=O)c1nnn(CC(=O)NC(=O)Nc2c(C)cccc2C)c1C(=O)OC`, inactive: 85%.
In the case of `COc1ccc(C2CC(=O)c3cc(-c4nc(-c5ccc(Cl)cc5)cs4)c(=O)[nH]c3C2)cc1OC` (stereo unspecified), the survival is inactive: 59%.
As to `Cc1ccccc1C(=O)n1nc(-c2cccnc2)nc1NCc1ccccc1`, the survival was inactive: 75%.
On to `CCCCN(CC)CCCNC(=O)c1nn(C)c2c1CSc1ccccc1-2`, for which the survival is inactive: 99%.
As to `COc1ccc(OC)c(CCNC(=O)Cn2ncc3c([nH]c4ccccc43)c2=O)c1`, the survival is inactive: 99%.
To `NS(=O)(=O)c1ccc(NC(=O)C2Cc3ccccc3N2C(=O)c2ccccc2)cc1` (stereo unspecified) belongs inactive: 68%; to `CCn1cc(C(=O)N2CCN(c3cccc(C)c3C)CC2)c2cc(OC)c(OC)cc2c1=O`, inactive: 180%; to `CCn1cc2nc(SCC(=O)Nc3ccccc3C(F)(F)F)n(Cc3ccc(C)cc3)c(=O)c2n1`, inactive: 105%.
Take `CC(C)Oc1ccc(C(=O)N(Cc2ccco2)Cc2cccs2)cc1`: the survival is active: 36%.
To `Cc1cc(OCC(=O)N(Cc2ccc(N(C)C)cc2)CC2CCCO2)ccc1Cl` (stereo unspecified) belongs inactive: 58%; to `N#Cc1cc(C#N)c(SCC(N)=O)nc1N`, inactive: 72%.
To `Cc1cccc(C)c1NC(=O)c1sc(-n2nc(C)c(Cc3ccccc3)c2C)nc1C` belongs inactive: 76%.
Turning to `O=C(CSc1ncc(S(=O)(=O)c2ccc(Cl)cc2)c(=O)[nH]1)Nc1cccc(C(F)(F)F)c1`, the survival is inactive: 69%.
Consider `COc1ccc(-c2cc3nc(C)c(CCC(=O)NC4CCCCC4)c(C)n3n2)c(OC)c1`, for which the survival was inactive: 76%.
With `COc1ccc(Cn2c(=O)c3cccnc3n(Cc3cccc(F)c3)c2=O)cc1`, the survival was inactive: 84%.
For the molecule `COc1ccccc1CNC(=O)c1ccc2nc(CCc3ccccc3)oc2c1`, the survival is inactive: 83%.
As to `COc1ccc(-c2nc(SCC(=O)Nc3c(C)cc(C)cc3C)n[nH]2)cc1`, the survival was inactive: 94%.
Then `COC(=O)c1ccc(C(=O)OC)c(NC(=O)c2ccc(-c3ccccc3)s2)c1`, with inactive: 126%; and `COC(=O)C(CCSC)NC(=O)Cn1ncc2c([nH]c3ccccc32)c1=O` (stereo unspecified), with inactive: 60%.
For the molecule `CCCOc1ccc(CNC(=O)c2ccc3c(c2)N(Cc2ccccc2)CCS3)cc1`, the survival was inactive: 103%.
